In the supplement of paper PMC3334620:
In all, about 33,000 sequences were measured (“E-score (-0.5 to 0.5)”: median about -0.013, highest 2% from about 0.3 on). This is one part of the list.

molecular target: T1, Msn1 (UniProt P22148); assay: PBM E-score (8-mer binding enrichment) (E-score (-0.5 to 0.5)); higher = stronger / more preferred TF binding; most listed sequences are background and not binding sites; conditions: protein concentration: 200 nM; construct: GST-full length
T1 sequence: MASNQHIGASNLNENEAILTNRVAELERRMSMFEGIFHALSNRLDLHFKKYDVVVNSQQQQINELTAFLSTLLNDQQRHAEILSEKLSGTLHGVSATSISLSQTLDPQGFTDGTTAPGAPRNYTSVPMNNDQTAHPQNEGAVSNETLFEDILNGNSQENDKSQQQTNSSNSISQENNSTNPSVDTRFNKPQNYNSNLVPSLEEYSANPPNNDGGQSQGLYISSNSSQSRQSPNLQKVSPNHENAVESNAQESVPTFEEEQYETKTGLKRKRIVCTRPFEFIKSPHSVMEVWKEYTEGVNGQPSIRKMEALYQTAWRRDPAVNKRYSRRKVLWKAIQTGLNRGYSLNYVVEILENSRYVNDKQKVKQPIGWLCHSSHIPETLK
Summary of the method: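 Masliner-normalised scans of fluorescent anti-GST signal were the basis for scoring. That signal came from GST-tagged yeast transcription factors applied at about 100-200 nM to double-stranded universal all-10-mer Agilent arrays on fresh or once-stripped slides. Each ungapped eight-base word, pooled with its reverse complement, received an E-score from the Universal PBM Analysis Suite.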

Row | Sequence | PBM E-score
1 | AGACTAAA | 0.115
2 | CACGCCAG | -0.286
3 | CGTACAAA | 0.356
4 | CCTGCCCG | -0.0502
5 | AGAATGTG | -0.172
6 | GTGAGATA | -0.0382
7 | GGTGTTTA | -0.00646
8 | GAGCAAGA | 0.0122
9 | CAGCCTCG | 0.0786
10 | CCGAGAGG | -0.0358
11 | GTTCGGGA | 0.199
12 | CAGAAGAG | -0.172
13 | ACTATCTA | 0.13
14 | ATTCCGTG | 0.117
15 | AAATTTGT | 0.363
16 | GAGAAGAC | -0.162
17 | AGGAAGAT | 0.0257
18 | CCGTCGCG | -0.192
19 | TCAGGCGA | -0.0372
20 | ATTAGTGC | 0.231
21 | GCTGGCAA | 0.186
22 | AATAGGGA | -0.154
23 | CACAGCGG | -0.121
24 | GAACAATA | 0.144
25 | AGGAGTCG | -0.217

Row | Sequence | PBM E-score
26 | GCGACTGA | 0.0324
27 | GTGTTAGA | 0.00427
28 | AAATCTAG | -0.049
29 | ATGCCAAC | 0.0264
30 | CAACGATA | 0.123
31 | CAGCACAG | 0.00522
32 | AGATCCGC | -0.0945
33 | ATTATAAC | 0.0372
34 | CTGGGCCA | -0.246
35 | CCATGCCC | -0.021
36 | CCTGGATC | -0.0975
37 | ATCTTCTC | -0.0883
38 | CTGCGCAG | -0.0334
39 | CTCACGCA | 0.152
40 | CGAACCTA | -0.201
41 | ACTTGTTA | 0.0301
42 | ACCCGCAA | -0.169
43 | CTTCGAAA | 0.0685
44 | AAGTGAGG | -0.128
45 | ATGACTCA | 0.0453
46 | ACCGCTCC | -0.278
47 | AACAGTCA | -0.106
48 | ACAGTCAT | -0.111
49 | AGTGGCAC | -0.158
50 | CGGTAACC | -0.172

Row | Sequence | PBM E-score
51 | GTTCAAAC | 0.0784
52 | ATGAAGAG | -0.099
53 | TAAAAGAA | 0.186
54 | TGGTAGAA | -0.0667
55 | CAGGCGGG | -0.251
56 | CCCTACCG | -0.256
57 | CATACTGC | -0.16
58 | CAAGAATA | 0.116
59 | ATCTACGC | 0.0817
60 | GATCCGTA | -0.147
61 | CCTTGAGC | -0.0431
62 | ATGGAAGG | -0.203
63 | TGCACACA | 0.0221
64 | CTTCGATC | -0.0311
65 | CATGGCCG | -0.133
66 | CACAACGG | -0.0673
67 | AAGAACAA | 0.241
68 | AAACAGGC | -0.0709
69 | GGAGAGAA | -0.154
70 | ATGGTACC | -0.149
71 | AAGCCGTC | 0.0517
72 | GAACCTGC | -0.163
73 | AGATTTAC | 0.141
74 | ACTGTCAT | 0.0249
75 | GATCTAGA | -0.0525

Row | Sequence | PBM E-score
76 | ACATCCAT | -0.0429
77 | AACTAAGA | 0.112
78 | AGCCTCTG | -0.291
79 | CCCAAAGA | 0.084
80 | CAGGTGTC | 0.104
81 | AACTGCTA | -0.115
82 | GAAAGCGA | 0.0605
83 | ACACAATA | 0.15
84 | TACACGCA | -0.112
85 | TAAGCCAA | -0.117
86 | GACAGTGA | 0.0705
87 | TACGGACA | 0.44
88 | AGAATGTC | 0.459
89 | ATCTTGTA | 0.0261
90 | ATAAGTCC | 0.422
91 | ACCCAGAT | -0.113
92 | CGGACGTC | 0.102
93 | GACGTGAC | -0.0407
94 | GAGAACAC | -0.184
95 | CGCCATAA | -0.0384
96 | GAACCACA | 0.113
97 | TCGAAGCA | -0.0338
98 | CGTCGCAC | -0.0819
99 | ACGGGATG | -0.217
100 | CCTGTTCC | -0.137

Row | Sequence | PBM E-score
101 | GGGCAGTA | 0.0714
102 | GGGTCACA | -0.159
103 | CGGTACGC | -0.17
104 | GGAGCGAA | 0.0407
105 | ATGGCATC | -0.0331
106 | AGATTTCA | 0.0525
107 | GTATTTGA | 0.0236
108 | ATCTATTC | 0.198
109 | TATTAAGA | 0.0769
110 | TCATAGAA | 0.21
111 | GACGATAC | -0.0128
112 | AGAGCCCC | -0.205
113 | ACACTTGA | 0.184
114 | CCACATAC | 0.0664
115 | GAAAGTAC | 0.177
116 | GCATCATA | 0.126
117 | ACATAGGT | 0.108
118 | GACCAACA | 0.176
119 | ATAGAAGA | 0.0763
120 | ATCACGCC | -0.132
121 | AGAGCGAG | -0.141
122 | CCTACGCC | -0.282
123 | GTAGACGA | 0.115
124 | ACACACCA | 0.183
125 | GATTACGC | -0.04

Row | Sequence | PBM E-score
126 | TAGTGGGA | -0.158
127 | ACCCGGGG | -0.249
128 | CCGAGCCA | 0.0402
129 | AAGTGATC | 0.108
130 | CTCGGTCA | 0.00363
131 | TCAGGAAA | 0.0903
132 | ATATTGGA | 0.0652
133 | AATTTGCT | 0.0832
134 | CAAATGCA | 0.0952
135 | GCAAATGA | -0.0127
136 | CGAAAGAG | 0.00829
137 | TAGTATGA | 0.183
138 | AGCGAAAG | 0.00846
139 | CATTATCA | 0.143
140 | ACCGCTAA | 0.0303
141 | AGACAATA | 0.428
142 | GCGAGAGC | -0.149
143 | AATTTAAT | 0.298
144 | GCTCGACA | -0.0538
145 | CAGGCCTC | -0.237
146 | CGAAACAC | 0.181
147 | GACTTCCC | -0.149
148 | AACAAGGC | -0.114
149 | CACGATTC | 0.103
150 | AACTTGCT | -0.128

Row | Sequence | PBM E-score
151 | TATTCCGA | 0.273
152 | CGCATAAC | 0.0227
153 | ATTACGTC | 0.133
154 | TACTGCAA | 0.0399
155 | ACCTGGAG | -0.089
156 | TCCAGCCA | -0.0925
157 | ACCCTTGG | -0.239
158 | AGCAAGGC | -0.223
159 | CCAATCGC | -0.0565
160 | TACAGTGA | 0.119
161 | TGCAGGCA | -0.198
162 | GGCATAAC | -0.0456
163 | AACATGGG | 0.0653
164 | CTGTCGGA | 0.0643
165 | ACACGTGG | 0.114
166 | AGATGCTA | -0.125
167 | AAATGCAT | 0.0939
168 | ATGACAGG | 0.105
169 | ACAAGTCA | 0.0996
170 | CCGTCTCG | -0.0947
171 | GTGCCGGA | 0.191
172 | CTAGAGGC | -0.193
